Measurements reported in PubChem BioAssay AID1963576 (National Center for Advancing Translational Sciences (NCATS), 2024).
Among all 46,000 compounds or so, about 60 (0.1%) were called active. Another 3% or so got no clear call; they are omitted. The call rests on the fitted dose curve; in most records, active means well fitted inhibition curve with a large enough effect; inconclusive means small, poorly fitted or top-dose-only effect; inactive means no such curve, though single readings can be large or run the other way. Some of the results follow. Positions of bridges follow the written chain, without caps; N, C: chain ends. Non-standard residues stand in square brackets, D forms with d. Residues, ends and D or L forms follow the SMILES beside them. ξ: configuration not given here. *: point of attachment. Octanoyl(6-Me) = CCC(C)CCCCC(=O)*; ξThr(3R) = C[C@@H](O)C(N)C(=O)O; dDab = NCC[C@@H](N)C(=O)O; Dab = NCC[C@H](N)C(=O)O

assay: Primary qHTS assay for Inhibitors of ovarian cancer metastasis using an organotypic tumor microenvironment (TME) model.; further: nearly all actives have a fitted effect of over 65% in size;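 on activity change, negative = inhibition: plate controls were DMSO wells for no effect and tomatine positive control wells for full effect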; settings: SKOV3ip1-GFP adhesion/invasion on 3D omental model, fluorescence; series mostly up to 45.8 µM; activity change, negative = inhibition: at the top concentration
Outline: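 qHTS, 4-pt dose (0.36-46 umol/L); SKOV3ip1-GFP, 1,200 cells/well, no FBS; primary omental fibroblast/mesothelial co-culture 48 h pre-grown; 2 h RT + 16 h 37 C; PBS wash, 4% PFA; GFP count 488/509 nm.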

SMILES | activity change, negative = inhibition | outcome
COc1ccccc1NC(=O)C1=C(C)Nc2nc(SC)nn2C1c1ccccc1Cl (stereo unspecified) | inactive: -6.19% | 
Cc1cc2n(n1)CCC(=O)N2Cc1ccc(C(=O)Nc2cc(Cl)ccc2C)cc1 | inactive: 11.9% | 
COc1ccc(OC)c(NC(=O)C2CCCN(S(=O)(=O)c3ccc4c(c3)CCCC(=O)N4)C2)c1 (stereo unspecified) |  | inactive
COc1ccccc1C(=O)Nc1ccc2nc(SCC(=O)N3CCCc4ccccc43)sc2c1 | inactive: -6.49% | 
Cc1ccccc1CSc1ncc(Cl)c(C(=O)Nc2nc3ccc(F)cc3s2)n1 |  | inactive
COc1ccccc1C(=O)N/C(=C\c1cn(S(=O)(=O)N(C)C)c2ccccc12)C(=O)NCCCn1ccnc1 | inactive: 11.8% | 
Cc1cccc(CN2CCC(CNC(=O)Cn3ncc4c([nH]c5ccc(C)cc54)c3=O)CC2)c1 | inactive: 1.75% | 
CCOC(=O)c1cc(S(=O)(=O)NCc2ccc(Cl)cc2)[nH]n1 | inactive: 27.5% | 
COc1ccccc1C(=O)Nc1nc2n(n1)C(c1ccc(F)cc1)C=C(c1ccc(Cl)cc1)N2 (stereo unspecified) | inactive: -3.51% | 
COc1cccc(-c2cc(C(F)(F)F)nc(NCCc3ccc(OC)c(OC)c3)n2)c1 |  | inactive
CCCN(CCC)C(=O)Cn1c(=O)n(-c2cccc(C)c2)c(=O)c2c1c1cc(OC)ccc1n2C | inactive: 2.19% | 
CCCCOc1ccc(C(C)NC(=O)CN2C(=O)CSc3ccc(S(=O)(=O)N4CCOCC4)cc32)cc1 (stereo unspecified) | inactive: -20.6% | 
CSc1ccc(-c2nnn(CC(=O)Nc3sc4c(c3C#N)CCC(C(C)(C)C)C4)n2)cc1 (stereo unspecified) | inactive: 1.14% | 
COc1ccc(NC(=O)c2ccco2)cc1NC(=O)c1cc(Cl)ccc1OC |  | inactive
O=S1(=O)c2ccccc2N(Cc2cccc(F)c2)c2ccccc21 | inactive: -5.41% | 
Cc1ccc(-n2ncc3c(N4CCCCCC4)ncnc32)cc1Cl | inactive: 1.26% | 
Cc1cccc(NC(=O)c2ccc(-n3c(C)nnc3C)cc2)c1 | inactive: 1.37% | 
COc1ccccc1CNC(=O)CCc1c(C)nc2cc(-c3ccc(Cl)cc3)nn2c1C |  | inactive
CCC(=O)Nc1ccc(Cl)c(-c2nc3ccccc3[nH]2)c1 | inactive: 0.955% | 

SMILES | activity change, negative = inhibition | outcome
O=C(CN1CCCN(Cc2cccc(Cl)c2)S1(=O)=O)Nc1ccc2c(c1)OCCO2 | inactive: -8.84% | 
COc1cccc2c1C(=O)c1c(O)c3c(c(O)c1C2=O)C[C@@](O)(C(=O)CO)C[C@@H]3O[C@H]1C[C@H](N)[C@@H](O)[C@H](C)O1 | inactive: -13.6% | 
CC(C)CC(=O)NCC(c1ccc2c(c1)OCO2)N1CCN(c2ccccc2)CC1 (stereo unspecified) | inactive: -1.01% | 
Cc1c(C(=O)OC2CCCCC2)[nH]c2c1C(=O)CC(c1ccc(F)cc1)C2 (stereo unspecified) | inactive: 10.5% | 
COc1ccc(-c2[nH]nc3nc(-c4cc(Br)ccc4OC)cc(C(=O)O)c23)cc1 | inactive: 11.2% | 
COc1ccc(CCNC(=O)CCCn2c(=O)c3ccccc3n(Cc3ccccc3)c2=O)cc1OC | inactive: 18.8% | 
COc1cccc(CNC(=O)C(=O)NCC(c2cccs2)S(=O)(=O)c2ccccc2)c1 (stereo unspecified) | inactive: -35.8% | 
COc1ccc(S(=O)(=O)N2Cc3ccccc3CC2C(=O)Nc2ccc(C)cc2)cc1OC (stereo unspecified) | inactive: 5.86% | 
CCn1c(COc2ccc(Cl)cc2Cl)nc2ccccc21 | inactive: 2.82% | 
CCc1ccccc1NC(=O)c1cn(C)c(=O)c2ccccc12 | inactive: 0.168% | 
O=S(=O)(c1ccc(F)cc1)N1CCC(Oc2cccc(C(F)(F)F)c2)CC1 |  | inactive
COc1c(Cl)cc(Cl)cc1C(=O)Nc1cccc(-c2nc3ccccc3o2)c1C | inactive: 2.06% | 
COc1ccc(CCN2C(=O)N(c3cccc(C)c3)C(=O)C2CC(=O)Nc2ccccc2)cc1OC (stereo unspecified) |  | inactive
Clc1ccc(CCNc2nc3cc(Cl)c(Cl)cc3n3cnnc23)cc1 | inactive: -1.44% | 
Cc1ccc(C)c(NC(c2ccccc2)c2nnc(-c3ccccc3F)o2)c1 (stereo unspecified) | inactive: -14.1% | 
CCOC(=O)CC(NC(=O)Cn1nnc(-c2ccccc2Cl)n1)c1ccc(OC)cc1 (stereo unspecified) | inactive: -3.98% | 
Cc1cccc(N2CCN(C(=O)c3ccc4c(c3)N(Cc3ccccc3)C(=O)c3ccccc3S4(=O)=O)CC2C)c1 (stereo unspecified) | inactive: 5.32% | 
CCC(C)CCCCC(=O)N[C@@H](CCN)C(=O)NC(C(=O)N[C@H](CCN)C(=O)N[C@@H]1CCNC(=O)C([C@@H](C)O)NC(=O)[C@@H](CCN)NC(=O)[C@@H](CCN)NC(=O)[C@@H](CC(C)C)NC(=O)[C@H](Cc2ccccc2)NC(=O)[C@H](CCN)NC1=O)[C@@H](C)O (stereo partly drawn) ({Octanoyl(6-Me)}-[Dab][ξThr(3R)][dDab][dDab][Dab]F[dL][dDab][dDab][ξThr(3R)]; lactam 4-C) | inactive: 2.01% | 
Cc1c2cnn(-c3ccccc3)c(=O)c2c(C)n1C(C)C(=O)Nc1ccccc1C(F)(F)F (stereo unspecified) |  | inactive

SMILES | activity change, negative = inhibition | outcome
Cc1cccc(CCNC(=O)c2cc(S(=O)(=O)N3CCCCC3)c[nH]2)c1 | inactive: -1.35% | 
COc1ccccc1CNC(=O)CSc1ncc(S(=O)(=O)c2ccc(C)c(Cl)c2)c(=O)[nH]1 | inactive: 7.13% | 
COc1ccc(-c2nnc(C3CCN(S(=O)(=O)c4cccc(Cl)c4)CC3)o2)cc1 | inactive: 4% | 
COc1ccc(-c2nnc(SCC(=O)N3CCC(C)CC3)o2)cc1 | inactive: -0.0234% | 
COCCCNC(=O)C1CCN(Cc2cc3ccccc3n2Cc2cccc(C)c2)CC1 | inactive: -0.0371% | 
CNC(=O)C1CCC(Cn2c(=O)c3sccc3n(CC(=O)N3CCCC(C)C3)c2=O)CC1 (stereo unspecified) | inactive: -2.19% | 
COc1ccc(-c2c(C)c3ccc(O)c(CN4CCOCC4)c3oc2=O)cc1OC | inactive: 6.73% | 
CC1CCN(C(=O)Cn2c(-c3cccs3)cc3cc(Cl)ccc32)CC1 | inactive: -9.32% | 
COc1cccc(NC(=O)Nc2ccc3c(c2)N(C)C(=O)c2ccccc2S3)c1 | inactive: 0.763% | 
CCCCOC(=O)c1c(C)oc2c1cc(NS(=O)(=O)c1cc(OC)ccc1OC)c1ccccc12 | inactive: -9.28% | 
CCOc1ccc(-c2nnc(SCC(=O)Nc3cccc(C#N)c3)o2)cc1 | inactive: -8.69% | 
Cc1cccc(NC(=O)c2sc3ncnc(N(C)C4CCCCC4)c3c2C)c1C | inactive: 0.396% | 
O=C(CN1C(=O)c2ccccc2Sc2ccc(C(=O)N3CCOCC3)cc21)Nc1ccc(Cl)cc1F | inactive: 3.48% | 
CC(C)(C)c1ccc(C(=O)Nc2ccc(-c3nc4ccccc4o3)c(O)c2)cc1 |  | inactive
CCCN1Cc2cccc(C(=O)Nc3cc(Cl)ccc3C)c2C1=O | inactive: 2.11% | 
O=C(CSc1nccn1Cc1ccc(F)cc1)NCc1ccco1 | inactive: -1.33% | 
Cc1ccc(C)c(NC(=O)C(CC(C)C)N2Cc3ccccc3C2=O)c1 (stereo unspecified) | inactive: 12.1% | 
Cc1cc(C)c2c(c1)c(C)cc1nnc(SCC(=O)c3ccccc3)n12 | inactive: -4.57% | 
